Sequences with one replicate were seen in a single cluster, so their values are uncertain.
Each sequence was assayed on ATP (assay: switch fluorescence ratio, 500 uM ATP over buffer (Cy3 cluster intensity, sum of 5 cycles each) (fold (ratio)); higher = stronger signal-on switching upon ATP binding; sequences stand for … in TCGTCGGCAGCGTCAGATGTGTATAAGAGACAGTTTTTTTTTTTTTTTTTTTTTTTTT…TC). Conditions: aptamer strand: ATP DNA aptamer (quencher-CACCTGGGGGAGTATTGCGGAGGAAGG + anchor), 100 nM annealed; ATP concentration: 500 uM; one replicate.
Procedure, shortened: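 Five buffer/ATP imaging cycles were run on Cy3-labelled switching-strand clusters on a modified Illumina MiSeq flow-cell, with NaOH stripping and re-annealing between cycles. In each cycle, clusters annealed to 100 nM quencher-labelled ATP aptamer were imaged in selection buffer, then after 15 min with 500 uM ATP at 22 °C. Per cluster, the fluorescence ratio is summed target-cycle over summed buffer-cycle Cy3 intensity, averaged per switch-domain sequence. Only clusters within 100-1000 RFU were kept.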
CTTCGGTCAA was tested, and the switch fluorescence ratio was 2.25.
Work on CTTCGTCCAT yielded a switch fluorescence ratio of 1.29.
CTTCGTCTTT gave a switch fluorescence ratio of 1.04.
CTTCGTTTTT showed a switch fluorescence ratio of 1.04.
CTTCTGAAAT gave a switch fluorescence ratio of 1.05.
With CTTCTGCTCA the switch fluorescence ratio was 1.02.
Work on CTTCTTAACG yielded a switch fluorescence ratio of 1.01.
Work on CTTGAAATGC yielded a switch fluorescence ratio of 1.09.
CTTGAAG gave a switch fluorescence ratio of 0.981.
Work on CTTGAAGATT yielded a switch fluorescence ratio of 0.949.
Work on CTTGAAGGT yielded a switch fluorescence ratio of 0.97.
CTTGACGGTG gave a switch fluorescence ratio of 1.01.
CTTGAGCCTA gave a switch fluorescence ratio of 1.02.
CTTGAGGAGG gave a switch fluorescence ratio of 0.967.
For CTTGAGGTAC, the switch fluorescence ratio was 0.977.
With CTTGAGTCCT the switch fluorescence ratio was 0.976.
CTTGATCAGC gave a switch fluorescence ratio of 1.02.
With CTTGATTGTT the switch fluorescence ratio was 1.03.
With CTTGATTTAT the switch fluorescence ratio was 1.03.
With CTTGCAGGAA the switch fluorescence ratio was 1.01.
Sequence CTTGCCACTT has a switch fluorescence ratio of 0.956.
For CTTGCGAGAA, the switch fluorescence ratio was 1.26.
CTTGCGGTAA showed a switch fluorescence ratio of 1.12.
Work on CTTGCTGATG yielded a switch fluorescence ratio of 1.01.
In the case of CTTGCTTTCA, the switch fluorescence ratio is reported as 0.98.
Work on CTTGCTTTCT yielded a switch fluorescence ratio of 1.01.
CTTGGAAGTG was tested, and the switch fluorescence ratio was 0.998.
CTTGGATGGA gave a switch fluorescence ratio of 0.956.
With CTTGGCGACG the switch fluorescence ratio was 1.01.
Work on CTTGGGAAAG yielded a switch fluorescence ratio of 0.984.
CTTGGGAGGA was tested, and the switch fluorescence ratio was 1.02.
For CTTGTAAGAC, the switch fluorescence ratio was 2.
Sequence CTTGTACGAG has a switch fluorescence ratio of 1.05.
CTTGTCGC was tested, and the switch fluorescence ratio was 0.986.
CTTGTCGCGA showed a switch fluorescence ratio of 0.984.
With CTTGTGACGA the switch fluorescence ratio was 1.04.
Work on CTTGTGTCCC yielded a switch fluorescence ratio of 0.999.
CTTGTGTCTT was tested, and the switch fluorescence ratio was 1.01.
CTTGTTTAAA showed a switch fluorescence ratio of 1.01.
CTTTAAGGCT showed a switch fluorescence ratio of 0.99.
CTTTAAGGTC gave a switch fluorescence ratio of 0.995.
With CTTTACCAAA the switch fluorescence ratio was 1.03.
CTTTACCAAG showed a switch fluorescence ratio of 1.04.
For CTTTAGGCT, the switch fluorescence ratio was 0.95.
CTTTAGTGCT showed a switch fluorescence ratio of 1.03.
With CTTTATACA the switch fluorescence ratio was 0.982.
With CTTTATCGTG the switch fluorescence ratio was 0.98.
Sequence CTTTATGGCT has a switch fluorescence ratio of 1.01.
In the case of CTTTCAGGCG, the switch fluorescence ratio is reported as 0.982.
Sequence CTTTCAGTTT has a switch fluorescence ratio of 0.971.
CTTTCCAATT gave a switch fluorescence ratio of 1.07.
CTTTCCGAAC showed a switch fluorescence ratio of 1.58.
In the case of CTTTCGAAA, the switch fluorescence ratio is reported as 1.06.
CTTTCGCTG showed a switch fluorescence ratio of 1.27.
For CTTTCGTT, the switch fluorescence ratio was 0.988.
CTTTCTACGT was tested, and the switch fluorescence ratio was 1.39.
CTTTCTCGAG was tested, and the switch fluorescence ratio was 1.01.
Work on CTTTCTGGAG yielded a switch fluorescence ratio of 1.29.
CTTTGAAGG gave a switch fluorescence ratio of 1.03.
For CTTTGACGAT, the switch fluorescence ratio was 1.
CTTTGATTCC showed a switch fluorescence ratio of 1.05.
Work on CTTTGTACAA yielded a switch fluorescence ratio of 0.992.
Sequence CTTTTAAACG has a switch fluorescence ratio of 0.99.
With CTTTTAGGG the switch fluorescence ratio was 0.988.
For CTTTTATAGA, the switch fluorescence ratio was 1.01.
In the case of CTTTTATTA, the switch fluorescence ratio is reported as 1.
CTTTTATTAC gave a switch fluorescence ratio of 1.08.
Work on CTTTTCCATG yielded a switch fluorescence ratio of 0.959.
Work on CTTTTCCCGA yielded a switch fluorescence ratio of 1.02.
CTTTTGACGC was tested, and the switch fluorescence ratio was 2.12.
With CTTTTGGGTC the switch fluorescence ratio was 0.98.
For CTTTTTGCCA, the switch fluorescence ratio was 0.969.
In the case of GAAAAAACTC, the switch fluorescence ratio is reported as 1.11.
GAAAAAAGA gave a switch fluorescence ratio of 0.992.
Work on GAAAAACCGT yielded a switch fluorescence ratio of 0.96.
For GAAAAATCAA, the switch fluorescence ratio was 1.01.
Work on GAAAACCAGA yielded a switch fluorescence ratio of 1.02.
GAAAACCGAA gave a switch fluorescence ratio of 1.08.
GAAAAGCACG was tested, and the switch fluorescence ratio was 1.36.
GAAAATATCG was tested, and the switch fluorescence ratio was 1.
In the case of GAAAATTTTG, the switch fluorescence ratio is reported as 0.979.
GAAACACAAA showed a switch fluorescence ratio of 1.
With GAAACAGTCC the switch fluorescence ratio was 1.59.
For GAAAGAATAA, the switch fluorescence ratio was 1.08.
With GAAAGATGTA the switch fluorescence ratio was 0.99.
GAAAGCATCC gave a switch fluorescence ratio of 1.56.
GAAAGCCCGC gave a switch fluorescence ratio of 1.03.
Work on GAAAGCGACG yielded a switch fluorescence ratio of 1.1.
GAAAGCTATT gave a switch fluorescence ratio of 1.
In the case of GAAAGGTGTG, the switch fluorescence ratio is reported as 0.991.
For GAAAGTAACG, the switch fluorescence ratio was 1.03.
GAAAGTCCTA gave a switch fluorescence ratio of 1.03.
In the case of GAAAGTTCTA, the switch fluorescence ratio is reported as 1.02.
For GAAATAAGCG, the switch fluorescence ratio was 0.993.
In the case of GAAATATATC, the switch fluorescence ratio is reported as 0.995.
Sequence GAAATCCGCA has a switch fluorescence ratio of 2.08.
Work on GAAATCGGAA yielded a switch fluorescence ratio of 1.01.
GAAATTAGAC gave a switch fluorescence ratio of 1.02.
With GAAATTATTC the switch fluorescence ratio was 0.999.
In the case of GAAATTCATG, the switch fluorescence ratio is reported as 1.06.

From the supplement of paper PMC10126150
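Further: ATP exposure 15 min at 22 °C before imaging.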
